Measurements as given in publication PMC4336329 (PLoS ONE, 2015).
About 14,000 (4.5%) of roughly 310,000 compounds showed an effect of 50% or more. Effects have a minus sign here. The list shows a part of the results.

Target: human ether-à-go-go-related gene (hERG) potassium channel (human, UniProt Q12809)
Assay: primary screen, population patch clamp on CHO cells stably expressing hERG
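Note: peak tail current of the secondary pulse compared with the same well before compound.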

human ether-à-go-go-related gene (hERG) potassium channel, sequence (Q12809 whole entry, looked up): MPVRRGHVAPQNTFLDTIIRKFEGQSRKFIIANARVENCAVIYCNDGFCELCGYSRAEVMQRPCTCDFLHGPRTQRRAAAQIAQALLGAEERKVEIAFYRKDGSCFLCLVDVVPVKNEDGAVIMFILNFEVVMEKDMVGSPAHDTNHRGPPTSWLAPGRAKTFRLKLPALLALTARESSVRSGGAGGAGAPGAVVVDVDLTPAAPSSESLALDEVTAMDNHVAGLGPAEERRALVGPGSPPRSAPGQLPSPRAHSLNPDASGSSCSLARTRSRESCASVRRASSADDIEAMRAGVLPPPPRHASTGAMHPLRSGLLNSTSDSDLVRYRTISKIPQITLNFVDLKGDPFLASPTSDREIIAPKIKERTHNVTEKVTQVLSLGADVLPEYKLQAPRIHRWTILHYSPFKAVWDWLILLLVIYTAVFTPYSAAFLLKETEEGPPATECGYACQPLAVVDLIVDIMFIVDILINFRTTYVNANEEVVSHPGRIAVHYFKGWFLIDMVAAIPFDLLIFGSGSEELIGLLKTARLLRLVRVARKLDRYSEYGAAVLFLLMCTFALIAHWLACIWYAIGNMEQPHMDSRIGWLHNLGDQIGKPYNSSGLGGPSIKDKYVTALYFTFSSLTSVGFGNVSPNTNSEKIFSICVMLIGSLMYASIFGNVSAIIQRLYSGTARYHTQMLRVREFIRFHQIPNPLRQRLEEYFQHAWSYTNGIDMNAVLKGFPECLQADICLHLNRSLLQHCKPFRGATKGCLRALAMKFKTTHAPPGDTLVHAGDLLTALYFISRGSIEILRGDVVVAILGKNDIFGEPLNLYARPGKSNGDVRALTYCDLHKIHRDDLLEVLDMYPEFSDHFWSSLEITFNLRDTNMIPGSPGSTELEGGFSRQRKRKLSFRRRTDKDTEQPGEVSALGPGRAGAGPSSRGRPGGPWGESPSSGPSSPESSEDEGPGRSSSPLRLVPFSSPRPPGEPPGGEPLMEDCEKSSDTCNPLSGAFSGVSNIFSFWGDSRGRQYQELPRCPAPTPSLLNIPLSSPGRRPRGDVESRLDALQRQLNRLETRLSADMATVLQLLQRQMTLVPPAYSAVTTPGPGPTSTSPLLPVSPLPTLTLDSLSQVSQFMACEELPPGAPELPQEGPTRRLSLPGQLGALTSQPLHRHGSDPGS

Compound | hERG current change (%, negative = inhibition) at 10uM
COc1ccccc1-n1cc(CN2CCN(CC(C)C)C(CCO)C2)cn1 (stereo not shown) | -3.13%
CC(C)(C)OC(=O)NCCc1nnc(SCc2ccc(Cl)cc2Cl)o1 | -22.8%
Cc1ccc(S(=O)(=O)N/N=C/c2c(F)cccc2Cl)cc1 | -7%
Cc1cc(C)cc(N(C(=O)CCC(=O)Nc2cc(C)on2)C(C(=O)NC2CCCC2)c2ccco2)c1 (stereo not shown) | 0.426%
CC1(CCBr)C(=O)N(c2ccccc2)c2ccccc21 (stereo not shown) | 14.6%
Cc1nnc(N2CCCC(C(=O)Nc3cc(F)ccc3F)C2)c2nn(-c3ccccc3)c(C)c12 (stereo not shown) | 22.9%
COCCNC(=O)CCCC(=O)NCCOC | 13.9%
Cc1ccc(N=Cc2c(O)n(-c3nccs3)c(=O)c3ccccc23)cc1 | 7.31%
O=C(CNC(=O)/C=C/c1ccco1)N=Nc1c(O)[nH]c2ccccc12 | 12%
CCNC(=O)CSc1nc2ccccc2c(=O)n1CCCOC(C)C | -11.1%
CC1CCN(S(=O)(=O)c2ccc(NC(=O)CN3CCCCCC3)cc2)CC1 | -31.2%
CC(C(=O)NCc1cccs1)n1cccc1 (stereo not shown) | 7.58%
COc1ccc(C2(C(=O)Nc3ccc(S(N)(=O)=O)cc3)CCCC2)cc1 | -15.5%
CCCCNC(=O)c1c(CSc2ccc(Cl)cc2)noc1C(=O)NCCC | 0.328%
Cc1cc(C)nc(SCc2cc(=O)c(OC(=O)c3ccc(S(=O)(=O)N(C)C)cc3)co2)n1 | -45.6%
O=C(O)CCCN1C(=O)c2ccccc2Sc2ncccc21 | 19%
Cc1ccc(C(C(=O)NC2CCCC2)N(C(=O)CCC(=O)Nc2cc(C)on2)c2ccccc2)cc1 (stereo not shown) | 2.26%
CCOC(=O)C1=C(C)N=C2SCCC(=O)N2C1c1cc(Br)ccc1OC (stereo not shown) | 9.58%
CCCCn1c(N)c(N(CC)C(=O)C(c2ccccc2)c2ccccc2)c(=O)[nH]c1=O | 14.1%
CC(C)c1ccc(C2=C(O)c3ccccc3C(=O)C2=O)cc1 | -38.2%

Compound | hERG current change (%, negative = inhibition) at 10uM
Cc1nc(C(F)(F)F)ccc1C(=O)Nc1ccc2ccccc2n1 | 11.3%
CCN(CC)C(=O)COC(=O)C1CCN(S(=O)(=O)c2ccc3c(c2)OCCO3)CC1 | -6.08%
CC(=O)NS(=O)(=O)c1ccc2c(c1)C(=O)c1cc(S(=O)(=O)NC(C)=O)ccc1-2 | 21.1%
COc1ccc(CNS(=O)(=O)c2cc(CN3C(=O)c4cccnc4C3=O)ccc2OC)cc1 | 12.4%
Cc1cccc(CNc2ncnc3ccc(-c4ccc5c(c4)OCCO5)cc23)c1 | -19.8%
Oc1ccccc1/C=N/Nc1ccnc(SCc2ccccc2)n1 | 10.7%
CCOC(=O)C1CCN(Cc2coc3ccc(Cl)cc3c2=O)CC1 | -33.6%
Cc1ccc2[nH]c3c(c2c1)CCCC3NCCO.Cl (stereo not shown) | -12.1%
COC(=O)c1scc(C)c1NC(=O)/C=C/C(=O)O | 14.7%
Cc1ccc(S(=O)(=O)N2CCC(C(=O)N[C@H](C(=O)NCC3CCCO3)C(C)C)CC2)cc1 (stereo partly shown) | -5.89%
N#Cc1c(Nc2ccc(F)cc2)sc(C(=O)c2ccccc2)c1N | -3.96%
O=S(=O)(c1ccccc1)N(CC(O)CN1CCOCC1)c1ccccc1 (stereo not shown) | 18.6%
CCOC(=O)c1c(C)n(C)c2ccc(OCC(O)CNCCc3ccccc3)cc12 (stereo not shown) | -28.2%
Cc1ccsc1CN1CCN(c2ccccn2)CC1 | -8.77%
Cc1ccc(S(=O)(=O)N2CCOC23CCN(S(=O)(=O)c2cccs2)CC3)cc1 | -2.85%
COc1ccc(S(=O)(=O)N2CCC(C(=O)NCCOc3ccccc3F)CC2)cc1OC | 0.0976%
COc1ccc(Cl)cc1NC(=S)NNC(=O)c1cccnc1 | 36.9%
CCc1cc(C(=O)Cc2cnn(-c3ccccc3)c2)c(O)cc1O | -5.4%
CCS(=O)(=O)c1ccc(O)c(NC(=O)COc2ccc(Cl)cc2)c1 | -19.5%
COc1ccc(-c2cc(C(=O)N3CCCCC3)c3ccccc3n2)cc1 | -6.49%

Compound | hERG current change (%, negative = inhibition) at 10uM
O=C(O)CCCC(=O)NCc1ccccn1 | 11.1%
O=C(O)CSCCc1ccccn1 | 12.2%
Nc1nnc(SCC(=O)NC23CC4CC(CC(C4)C2)C3)s1 | -7.89%
O=C(Cn1nnc(-c2ccccc2NC(=O)c2ccco2)n1)NC1CCCCC1 | 0.336%
COc1ccc(-c2n[nH]c(C)c2-c2cnn(-c3ccccc3)c2)c(O)c1 | -21.2%
O=C1OC(=O)C2C3CCC(O3)C12 (stereo not shown) | 9.87%
Cc1cccc(/C=N/NC(=O)c2cc(C)nc3ccccc23)n1 | 9.57%
CCCn1c(=O)c(C(=O)c2ccccc2)nc2ccccc21 | -27.4%
CC(=O)Nc1ccc(/C=N/Nc2nncc3ccccc23)cc1 | 14.6%
CCCSCCCNC(=O)Cn1nc(CC)n2c(cc3c(OC)cccc32)c1=O | 11.9%
CNC(=O)NC(=S)NC(=O)c1cccc(Cl)c1 | 29.8%
CN1CCN(C(=O)c2ccccc2-c2nc(-c3ccccc3)no2)CC1 | -25.5%
CCCCC1CCCC12NC(=O)NC2=O (stereo not shown) | 2.73%
CCC(C)NC(=O)c1cnn2c(C)c3c(nc12)CCCC3 (stereo not shown) | -12.4%
CCC(=O)NC(=S)NNC(=O)c1ccc([N+](=O)[O-])cc1 | 13.4%
Cc1c(O)ccc2c3c(c(=O)oc12)CCC(C)C3 (stereo not shown) | 17.6%
CN(Cc1ccccc1)C(=O)CCCn1c(=O)[nH]c2cc(Cl)ccc2c1=O | -9.52%
FC(F)(F)c1ccccc1NC(=S)N1CCCC1 | 9.42%
